Assay results from PubChem BioAssay AID1240 (Sanford-Burnham Center for Chemical Genomics, 2008).
The campaign covered roughly 50,000 compounds. About 800 (1.6%) showed an effect of 50% or more. The list shows a part of the results.

The compounds below were run against Bcl-2-like protein 10 (Homo sapiens) (UniProt Q9HD36) (assay: Phenotype converters, Bcl-B/TR3 peptide binding displacement, primary biochemical FP (AID 1240;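 further: 0% = Bcl-B with tracer peptide and DMSO and 100% = tracer peptide lacking Bcl-B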)). Conditions: GST-Bcl-B / FITC-TR3 peptide fluorescence polarization; stronger effect = higher value; compound at 3.75 mg/L.
Sequence of UniProt Q9HD36 (Q9HD36 whole entry, looked up): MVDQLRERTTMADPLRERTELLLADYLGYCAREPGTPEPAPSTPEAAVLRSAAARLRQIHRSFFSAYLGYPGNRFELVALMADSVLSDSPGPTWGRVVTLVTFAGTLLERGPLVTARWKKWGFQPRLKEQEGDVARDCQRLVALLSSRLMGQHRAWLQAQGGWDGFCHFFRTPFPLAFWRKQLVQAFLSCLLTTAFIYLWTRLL
In the case of `CCOC(=O)C1(C)C(Br)=C(O)C(=O)N1c1ccccc1` (configuration not stated), the displacement was 1.3%.
With `Cc1ccc(NC(=O)COc2cccc(Cl)c2)cc1[N+](=O)[O-]` the displacement was -2%.
With `O=C1Nc2ccc(Br)cc2C1=Cc1nc2ccccc2c(=O)n1-c1ccc(C(=O)O)cc1` the displacement was -3.8%.
`Nc1nnc(SCC(=O)Nc2ccccc2[N+](=O)[O-])s1` was tested, and the displacement was 11.2%.
`COc1cc(/C=C2\SC(=S)N(C3CCCCC3)C2=O)ccc1OC(=O)c1cccc(C)c1` was tested, and the displacement was 3%.
Compound `CSC1=NC(c2ccccc2)C(C(=O)Nc2ccccc2)=C(C)N1` (configuration not stated) has a displacement of -17.4%.
Compound `CCCCNC(NCCCC)=C(S(=O)(=O)CC)S(=O)(=O)CC` has a displacement of 0.7%.
`CC(=O)Oc1ccc(/C=C2/SC(=S)N(c3ccccc3)C2=O)cc1` gave a displacement of -2.6%.
For `CCc1ccc(/C=C2/SC(=S)N(CCC(=O)O)C2=O)cc1`, the displacement was -7.1%.
For `Cc1ccc(C(=O)c2ccc(Br)cc2)cc1S(=O)(=O)Nc1cccc(C(=O)O)c1`, the displacement was 9.2%.
With `Cc1ccc(CC2C(=O)N(c3ccc4ccccc4n3)C(=O)C2C)cc1` (configuration not stated) the displacement was 2.2%.
In the case of `N#C/C(=C(/O)C(c1ccccc1)c1ccccc1)c1nc2ccccc2s1`, the displacement was -3.6%.
With `O=C(c1ccc(-c2ccccc2)cc1)N1CCN(CCN2C(=O)c3cccc4cccc(c34)C2=O)CC1` the displacement was -9%.
With `O=C(COc1ccc(Cl)cc1)Nc1ccc2oc(-c3ccccc3)nc2c1` the displacement was -6.4%.
`O=C(O)C1C2CCC(O2)C1C(=O)N1CCN(c2ccc(F)cc2)CC1` (configuration not stated) gave a displacement of -9.7%.
With `CCc1ccc(-c2cc(C(=O)O)c3ccccc3n2)cc1` the displacement was 6.2%.
`OCC1CCCCN1CC(O)COc1ccc(C23CC4CC(CC(C4)C2)C3)cc1` (configuration not stated) was tested, and the displacement was -1.4%.
`CC(=O)Oc1ccc(C)cc1N1C(=O)c2ccc(C(=O)O)cc2C1=O` showed a displacement of 11.4%.
`O=C(COc1ccccc1Cl)Nc1ccc(NC(=O)c2ccc(Cl)cc2Cl)cc1` gave a displacement of -23.1%.
Compound `Cc1cccc(C)c1NC(=O)c1cccc([N+](=O)[O-])c1` has a displacement of 0.9%.
`CC1CC(C)CN(C(=O)/C=C/c2ccc3c(c2)OCO3)C1` (configuration not stated) was tested, and the displacement was -11%.
Compound `CC1CCCN(C(=O)/C=C/c2ccccc2)C1` (configuration not stated) has a displacement of 8.3%.
Compound `O=C(Nc1ccc(I)cc1Cl)c1cccc2ccccc12` has a displacement of -5.6%.
`CC(=O)c1cccc(NC(=O)c2ccc(C(=O)Nc3cccc(C(C)=O)c3)cc2)c1` showed a displacement of 15%.
Compound `CCN(CC)c1ccc(/C=C(/C#N)C(=O)Nc2cccc(Br)c2)o1` has a displacement of -60.8%.
`CCCOc1cccc(C(=O)Nc2scc(-c3ccc(F)cc3)c2C(=O)OC)c1` was tested, and the displacement was -8.5%.
`O=C(CC1SC(=Nc2ccccc2)N(c2ccccc2)C1=O)Nc1ccccc1C(F)(F)F` (configuration not stated) was tested, and the displacement was -11.6%.
For `COc1ccc(-n2nc3cc(C)c(NC(=O)/C=C/c4ccccc4)cc3n2)cc1`, the displacement was 4.5%.
Compound `COC(=O)C1=C(C)N(C)C(C)=C(C(=O)OC)C1c1ccc(C(=O)OC)cc1` has a displacement of 0.4%.
Work on `Cc1ccc(-c2nc3ncccc3o2)cc1NC(=O)c1cc([N+](=O)[O-])ccc1Cl` yielded a displacement of 3.7%.
With `COc1ccccc1CNC(=O)CN(c1ccc(Cl)cc1)S(C)(=O)=O` the displacement was -1%.
With `CCN(CC)C(=O)CN(c1ccc(OC)c(Cl)c1)S(=O)(=O)c1ccccc1` the displacement was 7.8%.
In the case of `CCN=C1SC(CC(=O)Nc2ccccc2C(F)(F)F)C(=O)N1CC` (configuration not stated), the displacement was 5.2%.
With `CC1(C)CC(=O)C=C(Nc2ccc3c(c2)CCC3)C1` the displacement was 0.8%.
`COc1cccc(/C=N/NC(=O)CC2C(=O)NN=C2C)c1O` (configuration not stated) was tested, and the displacement was -26.2%.
Compound `O=C(O/N=C(/c1ccncc1)c1ccc([N+](=O)[O-])cc1)c1cccc(F)c1` has a displacement of -1.9%.
Compound `O=C1CC(N2CCN(Cc3ccccc3)CC2)C(=O)N1c1ccc(Cl)c(Cl)c1` (configuration not stated) has a displacement of 1.7%.
`Cc1ccc(C(=O)/C=C/c2ccc(-c3ccccc3[N+](=O)[O-])o2)cc1` showed a displacement of 14%.
Compound `COc1ccc(S(=O)(=O)N2CCN(Cc3ccccn3)CC2)cc1` has a displacement of -16.4%.
For `Oc1cccc(C=Nc2ccccc2)c1O`, the displacement was -6.7%.
In the case of `COC(=O)c1cc(NC(=O)c2cc(OC)cc(OC)c2)cc(C(=O)OC)c1`, the displacement was 45.6%.
For `NS(=O)(=O)c1ccc(CNS(=O)(=O)c2ccc(Br)cc2)cc1`, the displacement was 11.4%.
`CC(=O)CC(=O)Nc1cccc(I)c1` showed a displacement of -4.5%.
With `COc1ccc(C2(CNC(=O)CC(c3ccccc3)c3ccccc3O)CCOCC2)cc1OC` (configuration not stated) the displacement was 1.7%.
`Clc1ccc(/C=N/Nc2cc(N3CCOCC3)nc(N3CCOCC3)n2)c(Cl)c1` showed a displacement of 4.4%.
`C=CCOc1ccc(/C=N/NC(=O)CSc2ncccn2)c(O)c1` was tested, and the displacement was -17.3%.
`CC(C)(C)NC(=O)/C(=C\c1cccs1)NC(=O)c1ccc(C(C)(C)C)cc1` gave a displacement of 20%.
With `O=C1CCCc2oc3c(Br)cc(NS(=O)(=O)c4cc(Cl)ccc4Cl)cc3c21` the displacement was -5.3%.
Work on `C=CCOc1ccc(/C=C2\SC(=S)N(c3cccc(C(F)(F)F)c3)C2=O)cc1OC` yielded a displacement of 9.6%.
`O=C(O)c1ccccc1C(=O)Nc1ccc(Nc2ccc([N+](=O)[O-])cc2[N+](=O)[O-])cc1` was tested, and the displacement was 8.6%.
Work on `COc1ccc(N=Cc2cccnc2)cc1` yielded a displacement of 13.5%.
Work on `Cc1ccc(NCCC(=O)c2ccc(Cl)c(Cl)c2)cc1` yielded a displacement of -15.4%.
For `Nc1ccc(S(=O)(=O)Nc2nccc(/C=C/c3ccc(F)cc3)n2)cc1`, the displacement was -6.5%.
`NC(=O)c1ccccc1NC(=O)COc1ccc(Cl)cc1Br` was tested, and the displacement was -4%.
For `CCOc1ccc(-c2cc(C(=O)Nc3ncccc3C)c3ccccc3n2)cc1`, the displacement was -2.7%.
Compound `Cc1ccc(OCc2nnc(NC(=O)c3ccccc3)s2)c(C)c1` has a displacement of 2.9%.
Work on `Cc1ccc(N2C(=O)CC(Sc3nc4ccccc4s3)C2=O)cc1` (configuration not stated) yielded a displacement of -9.4%.
`CC(=O)C1C(c2ccccc2F)c2c(n[nH]c2C)CC1(C)O` (configuration not stated) was tested, and the displacement was -8.3%.
`CCOc1ccccc1NC(=O)c1c(NC(=O)c2cccs2)sc2c1CCC(C)C2` (configuration not stated) gave a displacement of -11.3%.
Work on `O=C(COc1ccccc1[N+](=O)[O-])Nc1ccc2oc(-c3ccc(Cl)cc3Cl)nc2c1` yielded a displacement of 13.5%.
Work on `O=C1C2ON(c3ccc(Cl)cc3)C(c3cccs3)C2C(=O)N1Cc1ccccc1` (configuration not stated) yielded a displacement of -3.1%.
With `COc1cc(OC)cc(C(=O)Nc2c[nH]c(=O)[nH]c2=O)c1` the displacement was 8.4%.
Compound `CCOc1cc(C2Nc3ccc4ccccc4c3C3=C2CC(C)(C)CC3=O)ccc1O` (configuration not stated) has a displacement of -10.2%.
For `Cc1ccc(C2CC(C(F)(F)F)n3ncc(C(=O)N4CCN(c5ccc(F)cc5)CC4)c3N2)cc1` (configuration not stated), the displacement was -2.8%.
`O=C(Nc1ccccc1)Nc1nnc(SCc2ccccc2F)s1` was tested, and the displacement was -3.4%.
Work on `Nc1cc(NCCCO)ccc1[N+](=O)[O-]` yielded a displacement of 12.3%.
With `CCOc1ccccc1NC(=O)COc1ccc(-c2ccc(C)cc2)cc1` the displacement was -18.5%.
